No constants are given. Whether binding was seen depends on the method and setting. For part of these data: In cells and extracts the contact can be indirect. Some results given as binding are weak or reduced against the parent protein; the word gives no strength. For part of these data: Tags and fused reporters may be left off the sequences shown.
T1: His-ubiquitin- and GFP-tagged full-length Cavin1 (recombinant GFP-Cavin1) (mouse) (UniProt O54724)
T1 sequence: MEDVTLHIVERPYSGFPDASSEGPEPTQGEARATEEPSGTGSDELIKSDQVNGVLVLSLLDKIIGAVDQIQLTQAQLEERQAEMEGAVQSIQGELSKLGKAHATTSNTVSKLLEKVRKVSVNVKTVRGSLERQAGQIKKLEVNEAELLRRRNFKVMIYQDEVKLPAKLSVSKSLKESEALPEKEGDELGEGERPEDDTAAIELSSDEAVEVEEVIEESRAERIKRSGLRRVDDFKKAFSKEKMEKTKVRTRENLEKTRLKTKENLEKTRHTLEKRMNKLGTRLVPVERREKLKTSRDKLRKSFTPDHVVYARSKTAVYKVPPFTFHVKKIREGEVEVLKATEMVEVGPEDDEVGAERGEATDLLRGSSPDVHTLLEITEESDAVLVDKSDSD

By UniProt entry, the sequences of proteins in these tests, tags left out. Where a name states a change or a piece, a line headed by the entry shows the natural chain unless it says otherwise. Chains listed by the source or under a name are the forms on record and can include a tag or linker.
UniProt Q03135: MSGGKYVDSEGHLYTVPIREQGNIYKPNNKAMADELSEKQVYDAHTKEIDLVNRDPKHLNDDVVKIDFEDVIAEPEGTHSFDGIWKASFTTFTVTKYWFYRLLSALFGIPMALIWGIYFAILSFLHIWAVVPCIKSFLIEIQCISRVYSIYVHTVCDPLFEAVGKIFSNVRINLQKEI
mCherry-CAV1(1–100) M1 (Q03135, form named): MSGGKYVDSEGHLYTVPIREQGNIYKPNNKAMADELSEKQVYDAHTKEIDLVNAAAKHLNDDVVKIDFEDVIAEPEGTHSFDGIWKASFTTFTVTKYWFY

T2: unlabelled purified Cavin1 (mouse) (UniProt O54724)
T2 sequence: T1 sequence

T3: His-ubiquitin- and GFP-tagged Cavin1-ΔDR1 (recombinant) (mouse) (UniProt O54724)
T3 sequence: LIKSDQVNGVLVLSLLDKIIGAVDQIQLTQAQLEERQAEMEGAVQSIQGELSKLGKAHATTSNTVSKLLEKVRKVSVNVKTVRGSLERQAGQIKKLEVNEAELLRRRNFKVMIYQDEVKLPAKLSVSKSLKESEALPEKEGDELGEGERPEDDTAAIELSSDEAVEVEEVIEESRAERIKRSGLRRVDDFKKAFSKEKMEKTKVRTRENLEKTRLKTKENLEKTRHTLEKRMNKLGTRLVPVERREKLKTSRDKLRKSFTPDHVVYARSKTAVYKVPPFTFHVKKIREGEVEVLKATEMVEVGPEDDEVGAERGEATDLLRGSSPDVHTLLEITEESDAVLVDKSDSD

T4: His-ubiquitin- and GFP-tagged Cavin1-ΔDR3 (recombinant) (mouse) (UniProt O54724)
T4 sequence: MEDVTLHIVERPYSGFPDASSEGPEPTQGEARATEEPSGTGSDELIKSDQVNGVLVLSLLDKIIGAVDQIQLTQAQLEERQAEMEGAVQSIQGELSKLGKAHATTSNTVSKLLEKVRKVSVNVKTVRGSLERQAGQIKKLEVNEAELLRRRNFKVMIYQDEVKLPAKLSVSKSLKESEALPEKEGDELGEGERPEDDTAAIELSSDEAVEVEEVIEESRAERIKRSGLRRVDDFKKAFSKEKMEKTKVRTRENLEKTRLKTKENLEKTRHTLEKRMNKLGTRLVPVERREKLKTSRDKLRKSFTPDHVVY

B1: His-ubiquitin- and GFP-tagged full-length Cavin1 (recombinant GFP-Cavin1) (natural protein, mouse, UniProt O54724 1-392, looked up)
chain: T1 sequence
notes: Cavin1, mouse, residues 1-392; also called purified recombinant GFP-Cavin1; source: E. coli Rosetta 2 (DE3), purified (TALON, Superose 6 SEC); not shown: His6-ubiquitin, N-terminal, kept; GFP, C-terminal, kept
B2: GFP-Cavin1(1–345) (domain or fragment, UniProt O54724 1-345)
chain: MEDVTLHIVERPYSGFPDASSEGPEPTQGEARATEEPSGTGSDELIKSDQVNGVLVLSLLDKIIGAVDQIQLTQAQLEERQAEMEGAVQSIQGELSKLGKAHATTSNTVSKLLEKVRKVSVNVKTVRGSLERQAGQIKKLEVNEAELLRRRNFKVMIYQDEVKLPAKLSVSKSLKESEALPEKEGDELGEGERPEDDTAAIELSSDEAVEVEEVIEESRAERIKRSGLRRVDDFKKAFSKEKMEKTKVRTRENLEKTRLKTKENLEKTRHTLEKRMNKLGTRLVPVERREKLKTSRDKLRKSFTPDHVVYARSKTAVYKVPPFTFHVKKIREGEVEVLKATEMVE
B3: GFP-Cavin1(1–330) (domain or fragment, UniProt O54724 1-330)
chain: MEDVTLHIVERPYSGFPDASSEGPEPTQGEARATEEPSGTGSDELIKSDQVNGVLVLSLLDKIIGAVDQIQLTQAQLEERQAEMEGAVQSIQGELSKLGKAHATTSNTVSKLLEKVRKVSVNVKTVRGSLERQAGQIKKLEVNEAELLRRRNFKVMIYQDEVKLPAKLSVSKSLKESEALPEKEGDELGEGERPEDDTAAIELSSDEAVEVEEVIEESRAERIKRSGLRRVDDFKKAFSKEKMEKTKVRTRENLEKTRLKTKENLEKTRHTLEKRMNKLGTRLVPVERREKLKTSRDKLRKSFTPDHVVYARSKTAVYKVPPFTFHVKKI
B4: GFP-Cavin1-ΔDR3, Cavin1(1–310), expressed in mammalian cells (domain or fragment, UniProt O54724 1-310)
chain: T4 sequence
B5: His-ubiquitin- and GFP-tagged Cavin1-ΔDR3 (recombinant) (domain or fragment, UniProt O54724 1-310)
chain: T4 sequence

How the values were obtained:
[1] = target: T1, His-ubiquitin- and GFP-tagged full-length Cavin1 (recombinant GFP-Cavin1) (mouse); experiment: in vitro co-phase separation (LLPS) assay, fluorescence microscopy; purified CAV1 constructs mixed with purified Cavin1 constructs, dextran T-500 (1.25% w/v) added; recruitment of CAV1 to Cavin1 droplets; both purified
[2] = target: T2, unlabelled purified Cavin1 (mouse); experiment: as above
[3] = target: T3, His-ubiquitin- and GFP-tagged Cavin1-ΔDR1 (recombinant) (mouse); experiment: as above
[4] = target: T4, His-ubiquitin- and GFP-tagged Cavin1-ΔDR3 (recombinant) (mouse); experiment: as above
[5] = target: GFP-tagged full-length Cavin1 expressed in MCF7 cells (mouse) (UniProt O54724); experiment: fluorescence correlation spectroscopy (FCS); GFP-tagged proteins in MCF7 cell lysates (cells lack cavins and caveolins); 25 mM Tris pH 7.4, 150 mM NaCl; diffusivity as read-out of self-association
[6] = target: Caveolin1 (CAV1), endogenous in PC3 cells (human (endogenous in PC3)) (UniProt Q03135); experiment: proximity ligation; PC3 cells transfected with GFP-tagged Cavin1 constructs; PLA between GFP-tagged proteins and endogenous CAV1, dots per cell
[7] = target: GFP-Cavin1(1–345) (mouse) (UniProt O54724); experiment: fluorescence correlation spectroscopy (FCS); GFP-tagged proteins in MCF7 cell lysates (cells lack cavins and caveolins); 25 mM Tris pH 7.4, 150 mM NaCl; diffusivity as read-out of self-association
[8] = target: T4, His-ubiquitin- and GFP-tagged Cavin1-ΔDR3 (recombinant) (mouse); experiment: fluorescence correlation spectroscopy (FCS); purified ubiquitin- and GFP-tagged proteins at 0.1 µM in 20 mM HepesKOH pH 7.6 with 150 mM NaCl, compared with 500 mM NaCl; diffusivity as read-out of self-association; both purified

Row | Molecule | binding [1] | binding [2] | other results
1 | mCherry-CAV1(30–80) (from UniProt Q03135 30-80) (domain or fragment) | no binding | no binding | –
2 | mCherry-CAV1(1–100) (from UniProt Q03135 1-100) (domain or fragment) | binds | binds | binding [3]: binds; binding [4]: no binding
3 | mCherry-CAV1(1–80) (from UniProt Q03135 1-80) (domain or fragment) | no binding | no binding | –
4 | mCherry-CAV1(1–30) (from UniProt Q03135 1-30) (domain or fragment) | no binding | no binding | –
5 | full length CAV1 fused with maltose binding protein (MBP) and GFP-binding nanobody protein (GBP) (from UniProt Q03135 1-178) | – | binds | –
6 | mCherry-CAV1(1–100) M1 (from UniProt Q03135 1-100) (domain or fragment) | binds | – | –
7 | B1 | – | – | binding [5]: binds
8 | B2 | – | – | binding [6]: binds; binding [7]: binds
9 | B3 | – | – | binding [6]: no binding
10 | B4 | – | – | binding [6]: no binding
11 | B5 | – | – | binding [8]: no binding (tested: 0.1 µM)
